Source: patent US9226952B2, “Na/K-ATPase-derived peptide Src inhibitors and ouabain antagonists and uses thereof” (The University of Toledo, priority 2008, dated 2016)

Experiments:
Src in LLC-PK1 cells = experiment: Basal Src activity (pY418) in LLC-PK1 cells; assay type: cell-based, pig; conditions: LLC-PK1 cells transiently transfected, 24 h
His-Src = experiment: In vitro GST pulldown assay; assay type: binding; conditions: 5 μg GST fusion protein, purified His-Src

Row | Substance | Src activity (pY418) in lysates of transfected cells (Src in LLC-PK1 cells) | binding to Src in GST pull-down (His-Src)
1 | YFP-ND: YFP fusion of the N domain expressed from pEYFP-ND plasmid | reduced Src activity | –
2 | ND1R: GST fusion protein, amino acid residue 436-594 of pig kidney Na/K-ATPase α1 subunit | – | not
3 | YFP-CD3: YFP fusion of the third cytosolic domain expressed from pEYFP-CD3 plasmid | reduced Src activity | –
